Test results from article PMC11658185, “Analysis of the quadruple lsu mutant reveals molecular determinants of the role of LSU proteins in sulfur assimilation in Arabidopsis” (The Plant Journal, 2024).
No constants are given. Whether binding was seen depends on the method and setting. Some binding calls cover weakened binding; strength is not graded here.

Experiments:
Assay in all cases: two-hybrid; yeast two-hybrid, ORFs in pDEST-GAD or pDEST-GBK (GAL4 AD and BD fusions); the panel of enzymes and LSU proteins tested in both orientations; growth on selection media, plates 3 days at 30°C
[1] = biological target: T1, SiR C-terminal domain (467-642) (A. thaliana) (UniProt Q9LZ66)
T1 sequence: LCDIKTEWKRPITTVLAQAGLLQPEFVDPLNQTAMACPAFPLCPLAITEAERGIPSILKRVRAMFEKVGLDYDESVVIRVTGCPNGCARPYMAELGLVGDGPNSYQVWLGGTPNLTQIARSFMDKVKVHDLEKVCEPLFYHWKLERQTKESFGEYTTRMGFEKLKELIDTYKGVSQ

[2] = biological target: T2, SiR N-terminal region (1-322) (A. thaliana) (UniProt Q9LZ66)
T2 sequence: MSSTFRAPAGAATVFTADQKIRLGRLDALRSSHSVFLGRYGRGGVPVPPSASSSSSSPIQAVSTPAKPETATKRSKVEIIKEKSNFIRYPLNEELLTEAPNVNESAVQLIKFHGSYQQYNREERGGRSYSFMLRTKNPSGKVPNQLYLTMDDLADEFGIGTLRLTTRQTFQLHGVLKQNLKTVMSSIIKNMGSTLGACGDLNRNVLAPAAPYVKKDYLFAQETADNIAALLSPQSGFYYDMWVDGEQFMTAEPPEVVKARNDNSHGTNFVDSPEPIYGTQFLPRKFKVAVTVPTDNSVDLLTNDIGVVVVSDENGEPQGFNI

[3] = biological target: T3, SiR region of amino acids 467-565 (A. thaliana) (UniProt Q9LZ66)
T3 sequence: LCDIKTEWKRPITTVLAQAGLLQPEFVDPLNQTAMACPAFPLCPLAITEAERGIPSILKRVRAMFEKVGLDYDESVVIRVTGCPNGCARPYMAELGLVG

[4] = biological target: T4, adenosine 5' phosphosulfate reductase isoform APR1 (A. thaliana) (UniProt P92979)
T4 sequence: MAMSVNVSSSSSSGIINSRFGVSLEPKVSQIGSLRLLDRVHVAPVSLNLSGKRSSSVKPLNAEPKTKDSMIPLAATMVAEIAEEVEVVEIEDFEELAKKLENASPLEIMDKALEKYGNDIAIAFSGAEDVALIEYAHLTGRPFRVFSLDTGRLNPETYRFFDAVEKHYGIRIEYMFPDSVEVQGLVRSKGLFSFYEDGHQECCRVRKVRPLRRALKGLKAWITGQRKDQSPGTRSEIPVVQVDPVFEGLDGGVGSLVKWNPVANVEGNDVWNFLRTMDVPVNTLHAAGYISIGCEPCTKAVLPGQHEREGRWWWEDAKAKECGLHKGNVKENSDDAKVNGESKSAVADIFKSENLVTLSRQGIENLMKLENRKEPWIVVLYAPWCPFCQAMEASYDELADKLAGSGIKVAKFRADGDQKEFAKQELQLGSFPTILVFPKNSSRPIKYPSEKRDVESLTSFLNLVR

[5] = biological target: T5, adenosine 5' phosphosulfate reductase isoform APR2 (A. thaliana) (UniProt P92981)
T5 sequence: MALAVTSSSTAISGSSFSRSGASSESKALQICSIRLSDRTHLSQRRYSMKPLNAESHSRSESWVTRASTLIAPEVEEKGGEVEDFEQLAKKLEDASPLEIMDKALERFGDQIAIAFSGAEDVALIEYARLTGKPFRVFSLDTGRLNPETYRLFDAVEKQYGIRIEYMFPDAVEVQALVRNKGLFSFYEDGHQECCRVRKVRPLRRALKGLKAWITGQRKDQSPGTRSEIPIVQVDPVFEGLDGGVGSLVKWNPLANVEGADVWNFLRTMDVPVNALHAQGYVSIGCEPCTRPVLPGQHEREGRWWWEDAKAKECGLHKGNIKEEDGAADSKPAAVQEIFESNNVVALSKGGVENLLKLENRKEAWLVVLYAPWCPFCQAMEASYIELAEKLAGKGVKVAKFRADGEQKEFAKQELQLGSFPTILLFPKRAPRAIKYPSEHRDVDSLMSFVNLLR

[6] = biological target: T6, adenosine 5' phosphosulfate reductase isoform APR3 (A. thaliana) (UniProt P92980)
T6 sequence: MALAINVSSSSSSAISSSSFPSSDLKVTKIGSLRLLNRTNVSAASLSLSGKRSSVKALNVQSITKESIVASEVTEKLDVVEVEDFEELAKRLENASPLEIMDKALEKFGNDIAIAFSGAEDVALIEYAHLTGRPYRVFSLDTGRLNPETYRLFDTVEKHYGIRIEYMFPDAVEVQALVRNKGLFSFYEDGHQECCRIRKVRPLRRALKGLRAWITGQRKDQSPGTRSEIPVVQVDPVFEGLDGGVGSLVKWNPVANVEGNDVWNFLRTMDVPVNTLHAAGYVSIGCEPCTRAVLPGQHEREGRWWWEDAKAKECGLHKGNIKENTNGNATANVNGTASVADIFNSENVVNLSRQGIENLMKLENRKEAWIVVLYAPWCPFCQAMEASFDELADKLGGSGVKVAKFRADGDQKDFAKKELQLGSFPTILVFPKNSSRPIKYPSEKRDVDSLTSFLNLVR

[7] = biological target: T7, sulfite reductase (SiR) (A. thaliana) (UniProt Q9LZ66)
T7 sequence: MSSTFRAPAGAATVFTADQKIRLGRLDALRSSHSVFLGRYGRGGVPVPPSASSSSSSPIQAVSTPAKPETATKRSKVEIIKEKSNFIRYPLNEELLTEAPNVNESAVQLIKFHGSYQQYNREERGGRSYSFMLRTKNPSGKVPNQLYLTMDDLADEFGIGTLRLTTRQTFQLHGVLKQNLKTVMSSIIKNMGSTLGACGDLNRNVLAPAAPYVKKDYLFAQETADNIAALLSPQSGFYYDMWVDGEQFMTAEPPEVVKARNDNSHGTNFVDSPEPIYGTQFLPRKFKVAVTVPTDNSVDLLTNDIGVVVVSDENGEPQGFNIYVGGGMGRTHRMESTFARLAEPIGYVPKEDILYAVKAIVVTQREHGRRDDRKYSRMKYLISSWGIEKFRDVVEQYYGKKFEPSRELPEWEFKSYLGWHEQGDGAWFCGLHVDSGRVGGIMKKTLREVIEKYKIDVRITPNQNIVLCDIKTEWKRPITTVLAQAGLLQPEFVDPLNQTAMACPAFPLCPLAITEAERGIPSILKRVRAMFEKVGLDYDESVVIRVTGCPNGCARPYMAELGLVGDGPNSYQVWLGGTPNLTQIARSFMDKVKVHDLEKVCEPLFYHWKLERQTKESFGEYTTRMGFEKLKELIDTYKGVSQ

binding [1]: binds
binding [2]: no binding
binding [3]: binds
binding [4]: binds
binding [5]: binds
binding [6]: binds
binding [7]: binds
B1: LSU1 (RESPONSE TO LOW SULFUR 1) (protein, UniProt Q9SCK1 1-94)
chain: MANRGGCVTVAAEEMDELRRRNIELSREVAEMKTEMIKLWQRTVVAEEAEEQLCSQLAELEVESLEQARDYHDRMLFLMDQISRLSSSSVVSSS
